Some of the results follow.
Columns and labels:
HSkMC = human skeletal muscle cells; assay: cytotoxicity call (relative viability < 0.9); conditions: 10 µM
HepG2 = assay: cytotoxicity call (relative viability < 0.9); conditions: 10 µM
S. aureus RN4220 = assay: growth inhibition call (relative growth <= 0.2); conditions: 50 µM

Structure (SMILES) | cytotoxicity call (HSkMC) | cytotoxicity call (HepG2) | growth inhibition call (S. aureus RN4220)
C[C@H](CO)N1C[C@H](C)[C@H](CN(C)C(=O)Cc2ccncc2)Oc2cc(C#CC3CCCC3)ccc2S1(=O)=O | inactive | inactive | inactive
C=CCOC(=O)[C@H]1[C@@H]2C(=O)O[C@@H](c3ccccc3)[C@@H](c3ccccc3)N2[C@@H](c2ccc(OCCOC(=O)[C@H]3C[C@H]4C(=O)N[C@@H](CC(C)C)C(=O)N4[C@H]3c3cccc(OCCO)c3)cc2)[C@]12C(=O)Nc1ccccc12 | inactive | inactive | inactive
C[C@H]1CN([C@@H](C)CO)C(=O)c2cccc(NS(=O)(=O)c3ccccc3)c2O[C@@H]1CN(C)C(=O)Nc1cccc2ccccc12 | inactive | inactive | inactive
O=C(NCc1ccc(Oc2ccccc2)cc1)c1nc(-c2cc(Br)c(O)c(Br)c2)no1 | inactive | inactive | active
O=C(C[C@@H]1CC[C@H]2[C@@H](COC[C@@H](O)CN2S(=O)(=O)c2cccc(Cl)c2)O1)NC1Cc2ccccc2C1 | inactive | inactive | inactive
C[C@H](CO)N1C[C@H](C)[C@@H](CN(C)C(=O)c2ccc(N3CCN(C)CC3)cc2)OCc2cnnn2CCCC1=O | inactive | inactive | inactive
CO[C@@H]1CN(C)C(=O)c2cc(NS(=O)(=O)CC(F)(F)F)ccc2OC[C@H](C)N(Cc2ccccn2)C[C@H]1C | inactive | inactive | inactive
CC(C)[C@@H](C(=O)O)n1cnnn1 | inactive | inactive | inactive
C[C@H]1CN([C@@H](C)CO)S(=O)(=O)c2ccc(Br)cc2O[C@H]1CN(C)C(=O)c1cnccn1 | inactive | inactive | inactive
C[C@@H]1CN([C@H](C)CO)C(=O)c2cc(NC(=O)CCCN(C)C)ccc2O[C@@H](C)CCCCO[C@H]1CN(C)C(=O)Nc1cccc2ccccc12 | inactive | inactive | inactive
COCC#Cc1ccc2c(c1)O[C@H](CN(C)C(=O)Nc1ccc(OC)cc1)[C@H](C)CN([C@@H](C)CO)S2(=O)=O | inactive | inactive | inactive
C[C@@H]1CN([C@@H](C)CO)S(=O)(=O)c2ccc(Br)cc2O[C@H]1CN(C)S(=O)(=O)c1ccccc1 | inactive | inactive | inactive
COc1ccc(NC(=O)N(C)C[C@@H]2OCCCC[C@H](C)Oc3ccc(NS(=O)(=O)c4ccccc4)cc3C(=O)N([C@H](C)CO)C[C@H]2C)cc1 | inactive | inactive | inactive
C[C@H]1CN([C@@H](C)CO)C(=O)c2cccc(NS(=O)(=O)c3cn(C)cn3)c2O[C@H]1CN(C)S(C)(=O)=O | inactive | inactive | inactive
S=C(SN1CCOCC1)N1CCOCC1 | inactive | inactive | inactive
C[C@@H]1CCCCO[C@H](CN(C)C(=O)Nc2ccc3c(c2)OCO3)[C@@H](C)CN([C@H](C)CO)C(=O)c2cc(NS(=O)(=O)c3ccc(Cl)cc3)ccc2O1 | inactive | inactive | inactive
C[C@@H]1CCCCO[C@H](CN(C)S(C)(=O)=O)[C@@H](C)CN([C@@H](C)CO)C(=O)c2cc(NS(=O)(=O)c3ccccc3)ccc2O1 | inactive | inactive | inactive
C[C@@H]1CN([C@@H](C)CO)C(=O)c2cccc(NC(=O)Nc3ccc(F)cc3)c2O[C@@H]1CN(C)Cc1ccc(Oc2ccccc2)cc1 | inactive | inactive | inactive
C[C@H]1CN([C@@H](C)CO)C(=O)c2cccc(NC(=O)c3nc4ccccc4s3)c2O[C@H]1CN(C)Cc1ccc(-c2ccccc2)cc1 | inactive | inactive | inactive

Structure (SMILES) | cytotoxicity call (HSkMC) | cytotoxicity call (HepG2) | growth inhibition call (S. aureus RN4220)
COc1ccc(NC(=O)N(C)C[C@@H]2Oc3ncc(C#CCN(C)C)cc3C(=O)N([C@H](C)CO)C[C@@H]2C)cc1 | inactive | inactive | inactive
COc1cccc(S(=O)(=O)N(C)C[C@H]2OCc3cn(nn3)CCCC(=O)N([C@@H](C)CO)C[C@H]2C)c1 | inactive | inactive | inactive
C[C@H](O)C#Cc1ccc2c(c1)O[C@H](CN(C)C)[C@H](C)CN([C@H](C)CO)S2(=O)=O | inactive | inactive | inactive
C[C@H]1CN([C@@H](C)CO)C(=O)c2c(c3ccccc3n2C)-c2ccccc2CO[C@H]1CN(C)C(=O)Nc1cccc(F)c1 | inactive | inactive | inactive
O=C(C[C@H]1CC[C@@H]2[C@H](COC[C@H](O)CN2C(=O)Nc2cccc(Cl)c2)O1)NCc1ccccc1F | inactive | inactive | inactive
COc1cc(OC)nc([C@@H](NC(=O)C2CCN(Cc3ccc(Oc4ccccc4)cc3)CC2)c2ccccc2C)n1 | inactive | active | inactive
CC(C)NC(=O)Nc1ccc2c(c1)C(=O)N([C@@H](C)CO)C[C@@H](C)[C@H](CN(C)C(=O)Nc1ccccc1)OCCCC[C@@H](C)O2 | inactive | inactive | inactive
COc1cccc(OCc2ccc(Cn3nc(NC(=O)NCc4ccccc4OC)c4ccccc43)cc2)c1 | inactive | inactive | inactive
Cc1ccccc1S(=O)(=O)N(C)C[C@@H]1Oc2ccc(NC(=O)Nc3ccc(Cl)c(Cl)c3)cc2CC(=O)N([C@@H](C)CO)C[C@@H]1C | active | active | inactive
COc1ccc(NC(=O)Nc2ccc3c(c2)C(=O)N([C@H](C)CO)C[C@H](C)[C@@H](CN(C)Cc2ccccc2)OCCCC[C@@H](C)O3)cc1 | inactive | inactive | inactive
CCO[C@H]1OC(C(=O)N2CCN(C)CC2)=C[C@@H](c2ccc3c(c2)OCO3)[C@@H]1CCCOC(=O)NCCCCCC(=O)NO | inactive | inactive | inactive
C[C@@H]1CN([C@@H](C)CO)C(=O)c2cc(NS(=O)(=O)c3cn(C)cn3)ccc2O[C@@H](C)CCCCO[C@H]1CN(C)S(=O)(=O)c1ccc(F)cc1 | inactive | inactive | inactive
Cc1cc(C)n(C(=O)Cn2cc([N+](=O)[O-])cn2)n1 | inactive | inactive | inactive
C[C@@H]1CN([C@@H](C)CO)C(=O)c2cccc(NC(=O)Nc3ccc(C(F)(F)F)cc3)c2O[C@@H]1CN(C)S(=O)(=O)c1ccc(F)cc1 | inactive | inactive | inactive
CN(C)CCCOc1nn(Cc2ccccc2)c2ccccc12.Cl | inactive | active | inactive
Cc1ccc(S(=O)(=O)Nc2ccc3c(c2)C(=O)N([C@H](C)CO)C[C@H](C)[C@H](CN(C)S(=O)(=O)c2ccc(F)cc2)OCCCC[C@@H](C)O3)cc1 | inactive | inactive | inactive
COc1ccc(NC(=O)Nc2ccc3c(c2)CC(=O)N([C@H](C)CO)C[C@H](C)[C@H](CN(C)S(C)(=O)=O)O3)cc1 | inactive | inactive | inactive
C[C@@H]1CN([C@H](C)CO)S(=O)(=O)c2ccc(C3=CCCC3)cc2O[C@H]1CN(C)S(=O)(=O)c1ccc(F)cc1 | inactive | inactive | inactive
CC(=N)NCCC[C@H](N)C(=O)O | inactive | inactive | inactive

Structure (SMILES) | cytotoxicity call (HSkMC) | cytotoxicity call (HepG2) | growth inhibition call (S. aureus RN4220)
c1ccc(CN(CC2=NCCN2)c2ccccc2)cc1 | inactive | inactive | inactive
O=C(NCCO)c1nc(NCCO)c2ccccc2n1 | inactive | inactive | inactive
COc1cc(CC=Cc2ccccc2)c(OC)cc1O | inactive | inactive | inactive
C[C@@H]1CCCCO[C@@H](CN(C)Cc2ccncc2)[C@H](C)CN([C@H](C)CO)C(=O)c2cc(NC(=O)C3CCCCC3)ccc2O1 | inactive | inactive | inactive
CC(C)NC(=O)Nc1ccc2c(c1)C(=O)N([C@@H](C)CO)C[C@H](C)[C@H](CN(C)S(=O)(=O)c1cn(C)cn1)OCCCC[C@H](C)O2 | inactive | inactive | inactive
CCc1c(C)[nH]c2c(C#N)cnn2c1=O | inactive | inactive | inactive
C[C@H](CO)N1C[C@H](C)[C@H](CN(C)C(=O)c2ccncc2)Oc2cc(C#CC3(O)CCCC3)ccc2S1(=O)=O | inactive | inactive | inactive
O=C(O)[C@@H]1CCCNC1 | inactive | inactive | inactive
CN1CCN(C(=O)C[C@@H]2CC[C@@H]3[C@H](COC[C@H](O)CN3S(=O)(=O)c3cccc(F)c3)O2)CC1 | inactive | inactive | inactive
C[C@]12CC[C@@H]3[C@]4(C=C[C@@]5(C=C4C(=O)c4cc6ccccc6s4)C[C@@H](O)CC[C@]35C)[C@@H]1CC[C@@]2(O)CN1CCC(n2c(=O)[nH]c3ccccc32)CC1 | inactive | inactive | inactive
CCOc1ccc2c(c1)-c1c(ssc1=S)C(C)(C)N2C | inactive | inactive | inactive
C[C@@H]1CN([C@H](C)CO)C(=O)c2cc(NC(=O)C3CCCCC3)ccc2O[C@@H](C)CCCCO[C@@H]1CN(C)C(=O)Cc1ccccc1 | inactive | inactive | inactive
C[C@H](CO)N1C[C@H](C)[C@@H](CN(C)Cc2ccc(Oc3ccccc3)cc2)Oc2ccc(NC(=O)Nc3cccc4ccccc34)cc2C1=O | inactive | inactive | inactive
Cc1noc(C)c1NC(=O)Nc1ccc2c(c1)C(=O)N([C@@H](C)CO)C[C@@H](C)[C@H](CN(C)S(=O)(=O)c1cccs1)OCCCC[C@@H](C)O2 | inactive | inactive | inactive
C[C@H](CO)N1C[C@H](C)[C@H](CN(C)S(=O)(=O)c2ccc(F)cc2)Oc2ccc(NC(=O)CCN3CCOCC3)cc2CC1=O | inactive | inactive | inactive
O=C(/C=C/c1ccc(O)c(O)c1)O[C@H]1[C@H](O)[C@@H](O)[C@H](OCCc2ccc(O)c(O)c2)O[C@@H]1CO | inactive | inactive | inactive
C[C@H]1CN([C@@H](C)CO)C(=O)c2cc(NC(=O)Cc3cn(C)c4ccccc34)ccc2O[C@H]1CN(C)Cc1ccc(C(=O)Nc2ccccc2N)cc1 | inactive | inactive | inactive
Cc1ccc(S(=O)(=O)Nc2ccc3c(c2)CC(=O)N([C@H](C)CO)C[C@H](C)[C@H](CN(C)Cc2ccc(-c4ccccc4)cc2)O3)cc1 | inactive | active | inactive

Reference: the antibiotic and cytotoxicity screens of Wong et al. (2023)
